# Inconclusive means that the source gave no clear call. Such entries were picked first, then a sample of the others. Potencies of inconclusive entries are left out as doubtful fits. Activity calls are given as the source filed them. The call rests on the fitted dose curve; in most records, active means well fitted inhibition curve with a large enough effect; inconclusive means small, poorly fitted or top-dose-only effect; inactive means no such curve, though single readings can be large or run the other way.
# Biological target: Rap guanine nucleotide exchange factor 3 (Homo sapiens) (UniProt O95398)
# Sequence of UniProt O95398 (O95398 whole entry, looked up): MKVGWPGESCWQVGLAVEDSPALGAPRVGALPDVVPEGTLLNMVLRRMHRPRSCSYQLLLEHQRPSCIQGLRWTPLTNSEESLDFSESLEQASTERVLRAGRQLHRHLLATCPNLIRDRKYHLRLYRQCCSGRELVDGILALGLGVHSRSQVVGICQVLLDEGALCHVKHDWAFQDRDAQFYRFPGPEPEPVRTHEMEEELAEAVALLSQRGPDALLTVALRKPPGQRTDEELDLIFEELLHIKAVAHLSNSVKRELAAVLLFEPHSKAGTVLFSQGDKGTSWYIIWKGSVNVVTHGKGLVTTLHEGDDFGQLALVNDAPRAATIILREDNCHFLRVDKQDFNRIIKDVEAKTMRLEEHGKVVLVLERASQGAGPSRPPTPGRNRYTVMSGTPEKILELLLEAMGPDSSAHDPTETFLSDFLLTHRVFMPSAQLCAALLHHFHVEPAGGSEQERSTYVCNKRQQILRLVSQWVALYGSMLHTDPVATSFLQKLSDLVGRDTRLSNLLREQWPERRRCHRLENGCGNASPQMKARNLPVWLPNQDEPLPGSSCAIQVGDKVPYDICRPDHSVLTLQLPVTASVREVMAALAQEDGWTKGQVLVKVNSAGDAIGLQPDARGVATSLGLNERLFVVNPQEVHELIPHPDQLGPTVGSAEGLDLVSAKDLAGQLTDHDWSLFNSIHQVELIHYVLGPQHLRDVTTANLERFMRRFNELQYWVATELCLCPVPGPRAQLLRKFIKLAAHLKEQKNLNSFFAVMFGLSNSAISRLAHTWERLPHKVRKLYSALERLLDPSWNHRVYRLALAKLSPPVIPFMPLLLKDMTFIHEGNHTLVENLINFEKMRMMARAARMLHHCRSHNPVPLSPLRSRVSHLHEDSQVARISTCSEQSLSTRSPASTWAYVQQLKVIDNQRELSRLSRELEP
# Experiment: Confirmatory qHTS for antagonist of cAMP-regulated guanine nucleotide exchange factor 3 (EPAC1) (AID 1645880); further: nearly all actives have a fitted effect of over 55% in size;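 on activity, negative = inhibition: plate controls were DMSO only for no effect and full effect of the ATA control for full effect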
# Conditions: EPAC1 Rap1B-BODIPY-GDP exchange, fluorescence; activity, negative = inhibition: at 115 µM (top of the series)
# Method in brief: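 Released BODIPY-GDP fluoresces less than Rap1-bound BODIPY-GDP; the signal is followed at 480/540 nm at 5-min intervals over 30 min, after 5 min at room temperature. Reactions contain 100 nM EPAC1, 250 nM RAP1B-BODIPY-GDP and 50 uM GDP; results are normalized to ATA and DMSO.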
# Potency means the concentration at half of the fitted maximal effect; tags describe the fitted curve by direction and shape.
SMILES,Potency,"activity, negative = inhibition"
COc1ccc(OCC(=O)NCc2ccc3c(c2)CCN3C(=O)c2cccc(C)c2)cc1,"inconclusive [inhibitor, partial curve, poor fit]",–
CCOCCCn1c(=N)c(C(=O)NC(C)c2ccccc2)cc2c(=O)n3cccc(C)c3nc21 (stereo not drawn),–,inactive: -31.5%
Cc1cc(N2CCN(c3cccc(C(F)(F)F)c3)CC2)n2nc(-c3ccccc3C)nc2n1,"inconclusive [inhibitor, partial curve]",–
